Our source for the FcγR-binding activity relative to GpH7-A5/GpH7-B3/GpL16-k0 and binding activity relative to GpH7-G1d/GpL16-k0 values is patent US20150344570A1.

In test [1] the target is each FcγR. The experiment in a line: SPR (Biacore), relative binding.
Test [2] deals with FcγR other than FcγRIa. Kind of test: SPR (Biacore), relative binding. A general note: Surface plasmon resonance follows binding to a sensor surface in real time, without labels.

Where “and” joins values, the source holds several entries; their conditions need not be identical. Equal values may be shown once.

B1: GpH7-A5/GpH7-B12/GpL16-k0 (antibody, human IgG1, kappa)
heavy 1: QVQLVQSGAEVKKPGASVTVSCKASGYTFTDYEMHWIRQPPGEGLEWIGAIDPKTGDTAYSESFQDRVTLTADKSTSTAYMELSSLTSEDTAVYYCTRFYSYTYWGQGTLVTVSS[human IgG1 constant region with D356K H435R (EU numbers) not spelt out]
heavy 2: QVQLVQSGAEVKKPGASVTVSCKASGYTFTDYEMHWIRQPPGEGLEWIGAIDPKTGDTAYSESFQDRVTLTADKSTSTAYMELSSLTSEDTAVYYCTRFYSYTYWGQGTLVTVSS[human IgG1 constant region with P329R K439E (EU numbers) not spelt out]
light: DIVMTQSPLSLPVTPGEPASISCQASESLVHSNRNTYLHWYLQKPGQSPQLLIYKVSNRFSGVPDRFSGSGSGTDFTLKISRVEAEDVGVYYCSQNTHVPPTFGQGTKVEIERTVAAPSVFIFPPSDEQLKSGTASVVCLLNNFYPREAKVQWKVDNALQSGNSQESVTEQDSKDSTYSLSSTLTLSKADYEKHKVYACEVTHQGLSSPVTKSFNRGEC
On to B1, for which the FcγR-binding activity relative to GpH7-A5/GpH7-B3/GpL16-k0 in test [1] was 0.2 fold and 0.25 fold.

B2: GpH7-A5/GpH7-B14/GpL16-k0 (antibody, human IgG1, kappa)
heavy 1: QVQLVQSGAEVKKPGASVTVSCKASGYTFTDYEMHWIRQPPGEGLEWIGAIDPKTGDTAYSESFQDRVTLTADKSTSTAYMELSSLTSEDTAVYYCTRFYSYTYWGQGTLVTVSS[human IgG1 constant region with D356K H435R (EU numbers) not spelt out]
heavy 2: QVQLVQSGAEVKKPGASVTVSCKASGYTFTDYEMHWIRQPPGEGLEWIGAIDPKTGDTAYSESFQDRVTLTADKSTSTAYMELSSLTSEDTAVYYCTRFYSYTYWGQGTLVTVSS[human IgG1 constant region with P329D K439E (EU numbers) not spelt out]
light: DIVMTQSPLSLPVTPGEPASISCQASESLVHSNRNTYLHWYLQKPGQSPQLLIYKVSNRFSGVPDRFSGSGSGTDFTLKISRVEAEDVGVYYCSQNTHVPPTFGQGTKVEIERTVAAPSVFIFPPSDEQLKSGTASVVCLLNNFYPREAKVQWKVDNALQSGNSQESVTEQDSKDSTYSLSSTLTLSKADYEKHKVYACEVTHQGLSSPVTKSFNRGEC
As for B2, the FcγR-binding activity relative to GpH7-A5/GpH7-B3/GpL16-k0 in test [2] was over 50%.

B3: GpH7-A5/GpL16-k0 (antibody, human IgG1, kappa)
heavy: QVQLVQSGAEVKKPGASVTVSCKASGYTFTDYEMHWIRQPPGEGLEWIGAIDPKTGDTAYSESFQDRVTLTADKSTSTAYMELSSLTSEDTAVYYCTRFYSYTYWGQGTLVTVSS[human IgG1 constant region with D356K H435R (EU numbers) not spelt out]
light: DIVMTQSPLSLPVTPGEPASISCQASESLVHSNRNTYLHWYLQKPGQSPQLLIYKVSNRFSGVPDRFSGSGSGTDFTLKISRVEAEDVGVYYCSQNTHVPPTFGQGTKVEIERTVAAPSVFIFPPSDEQLKSGTASVVCLLNNFYPREAKVQWKVDNALQSGNSQESVTEQDSKDSTYSLSSTLTLSKADYEKHKVYACEVTHQGLSSPVTKSFNRGEC
As to B3, the binding activity relative to GpH7-G1d/GpL16-k0 in test [1] is over 80%.

B4: GpH7-A5/GpH7-B15/GpL16-k0 (antibody, human IgG1, kappa)
heavy 1: QVQLVQSGAEVKKPGASVTVSCKASGYTFTDYEMHWIRQPPGEGLEWIGAIDPKTGDTAYSESFQDRVTLTADKSTSTAYMELSSLTSEDTAVYYCTRFYSYTYWGQGTLVTVSS[human IgG1 constant region with D356K H435R (EU numbers) not spelt out]
heavy 2: QVQLVQSGAEVKKPGASVTVSCKASGYTFTDYEMHWIRQPPGEGLEWIGAIDPKTGDTAYSESFQDRVTLTADKSTSTAYMELSSLTSEDTAVYYCTRFYSYTYWGQGTLVTVSS[human IgG1 constant region with P329E K439E (EU numbers) not spelt out]
light: DIVMTQSPLSLPVTPGEPASISCQASESLVHSNRNTYLHWYLQKPGQSPQLLIYKVSNRFSGVPDRFSGSGSGTDFTLKISRVEAEDVGVYYCSQNTHVPPTFGQGTKVEIERTVAAPSVFIFPPSDEQLKSGTASVVCLLNNFYPREAKVQWKVDNALQSGNSQESVTEQDSKDSTYSLSSTLTLSKADYEKHKVYACEVTHQGLSSPVTKSFNRGEC
In test [2], B4 yielded a FcγR-binding activity relative to GpH7-A5/GpH7-B3/GpL16-k0 of over 50%.

B5: GpH7-B3/GpL16-k0 (antibody, human IgG1, kappa)
heavy: QVQLVQSGAEVKKPGASVTVSCKASGYTFTDYEMHWIRQPPGEGLEWIGAIDPKTGDTAYSESFQDRVTLTADKSTSTAYMELSSLTSEDTAVYYCTRFYSYTYWGQGTLVTVSS[human IgG1 constant region with K439E (EU numbers) not spelt out]
light: DIVMTQSPLSLPVTPGEPASISCQASESLVHSNRNTYLHWYLQKPGQSPQLLIYKVSNRFSGVPDRFSGSGSGTDFTLKISRVEAEDVGVYYCSQNTHVPPTFGQGTKVEIERTVAAPSVFIFPPSDEQLKSGTASVVCLLNNFYPREAKVQWKVDNALQSGNSQESVTEQDSKDSTYSLSSTLTLSKADYEKHKVYACEVTHQGLSSPVTKSFNRGEC
In test [1], B5 yielded a binding activity relative to GpH7-G1d/GpL16-k0 of over 80%.

B6: GpH7-A5/GpH7-B13/GpL16-k0 (antibody, human IgG1, kappa)
heavy 1: QVQLVQSGAEVKKPGASVTVSCKASGYTFTDYEMHWIRQPPGEGLEWIGAIDPKTGDTAYSESFQDRVTLTADKSTSTAYMELSSLTSEDTAVYYCTRFYSYTYWGQGTLVTVSS[human IgG1 constant region with D356K H435R (EU numbers) not spelt out]
heavy 2: QVQLVQSGAEVKKPGASVTVSCKASGYTFTDYEMHWIRQPPGEGLEWIGAIDPKTGDTAYSESFQDRVTLTADKSTSTAYMELSSLTSEDTAVYYCTRFYSYTYWGQGTLVTVSS[human IgG1 constant region with P329K K439E (EU numbers) not spelt out]
light: DIVMTQSPLSLPVTPGEPASISCQASESLVHSNRNTYLHWYLQKPGQSPQLLIYKVSNRFSGVPDRFSGSGSGTDFTLKISRVEAEDVGVYYCSQNTHVPPTFGQGTKVEIERTVAAPSVFIFPPSDEQLKSGTASVVCLLNNFYPREAKVQWKVDNALQSGNSQESVTEQDSKDSTYSLSSTLTLSKADYEKHKVYACEVTHQGLSSPVTKSFNRGEC
Consider B6, for which the FcγR-binding activity relative to GpH7-A5/GpH7-B3/GpL16-k0 in test [1] is 0.2 fold and 0.25 fold.
